# Results as given in publication PMC4336329 (PLoS ONE, 2015).
# Among all 310,000 compounds or so, about 2,200 (0.71%) showed an effect of 50% or more. Effects have a minus sign here. The list shows a part of the results.
# Target: human ether-à-go-go-related gene (hERG) potassium channel (human, UniProt Q12809)
# Test: primary screen, population patch clamp on CHO cells stably expressing hERG
# Chain of human ether-à-go-go-related gene (hERG) potassium channel (Q12809 whole entry, looked up): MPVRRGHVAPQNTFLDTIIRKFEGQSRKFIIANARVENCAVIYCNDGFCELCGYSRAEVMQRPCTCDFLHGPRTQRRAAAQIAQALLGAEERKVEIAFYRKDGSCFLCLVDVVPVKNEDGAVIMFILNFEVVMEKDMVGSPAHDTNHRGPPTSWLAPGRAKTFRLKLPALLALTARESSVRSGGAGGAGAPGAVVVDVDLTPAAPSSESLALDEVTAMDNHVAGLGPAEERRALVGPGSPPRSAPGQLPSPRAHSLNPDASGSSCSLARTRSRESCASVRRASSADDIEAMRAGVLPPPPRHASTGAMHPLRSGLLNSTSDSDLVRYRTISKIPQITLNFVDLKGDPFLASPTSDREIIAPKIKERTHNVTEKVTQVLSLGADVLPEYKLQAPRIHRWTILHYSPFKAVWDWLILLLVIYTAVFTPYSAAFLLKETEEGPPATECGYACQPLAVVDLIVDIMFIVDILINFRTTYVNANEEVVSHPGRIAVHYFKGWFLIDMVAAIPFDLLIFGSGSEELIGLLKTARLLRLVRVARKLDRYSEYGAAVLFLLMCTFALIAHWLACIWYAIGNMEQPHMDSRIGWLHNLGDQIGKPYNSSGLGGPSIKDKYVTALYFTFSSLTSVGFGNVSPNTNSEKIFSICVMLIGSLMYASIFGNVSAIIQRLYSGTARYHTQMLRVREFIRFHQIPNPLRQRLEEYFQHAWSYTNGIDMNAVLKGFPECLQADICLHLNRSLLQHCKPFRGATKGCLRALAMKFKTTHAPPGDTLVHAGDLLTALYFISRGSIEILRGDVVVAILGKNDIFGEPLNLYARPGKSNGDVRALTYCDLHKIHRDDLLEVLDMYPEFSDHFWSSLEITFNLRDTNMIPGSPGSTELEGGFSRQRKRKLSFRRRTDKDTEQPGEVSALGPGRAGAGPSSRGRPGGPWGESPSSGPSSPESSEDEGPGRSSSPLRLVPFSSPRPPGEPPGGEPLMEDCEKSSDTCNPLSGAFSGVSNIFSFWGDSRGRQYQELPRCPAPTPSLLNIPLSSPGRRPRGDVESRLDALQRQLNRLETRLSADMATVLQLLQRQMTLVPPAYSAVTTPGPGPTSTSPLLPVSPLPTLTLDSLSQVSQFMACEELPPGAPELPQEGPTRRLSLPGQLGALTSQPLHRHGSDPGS
row,Structure (SMILES),"hERG current change (%, negative = inhibition) at 1uM [%]"
1,COc1ccc(NC(=S)NC(=O)/C=C/c2ccco2)cc1,1.24
2,COc1nnc(-c2ccc(C)cc2)c2ccccc12,13.6
3,COc1ccc(NC(=O)C(=O)NCCN2CCN(C(=O)c3cccs3)CC2)cc1,-7.77
4,Cc1ccc(N2C(=O)C(c3c(C)[nH]n(-c4ccccc4)c3=O)(C(F)(F)F)C3=C2CC(C)(C)CC3=O)cc1 (stereo not drawn),17.7
5,Cn1c(=O)c2c(nc(NCc3ccco3)n2C)n(C)c1=O,13.4
6,CCc1cc(Cn2nc(-c3ccccc3C)cc2C(=O)O)on1,8.83
7,COc1ccc(CNC(=O)c2[nH]c(C)c(C(C)=O)c2C)cc1,9.51
8,O=C(NCCCN1CCCCCC1)c1ccc2c(Cl)c3c(nc2c1)CCCC3,-12
9,Cl.O=C(c1ccco1)N1CCN(Cc2nnnn2CC2CCCO2)CC1 (stereo not drawn),5.26
10,Cc1ccc(CCNC(=O)C2CCCN(S(=O)(=O)c3cccs3)C2)cc1 (stereo not drawn),6.08
11,Cc1c(C(c2ccc(Br)cc2)c2c(C)n(C)n(-c3ccccc3)c2=O)c(=O)n(-c2ccccc2)n1C,15.6
12,O=C(NC1CCCC1)C(=O)N(c1ccccc1F)C(C(=O)NCC1CCCO1)c1cccs1 (stereo not drawn),4.16
13,CCc1ccccc1NC(=O)CN1CCN(C(=O)CNC(=O)c2ccccc2F)CC1,-3.6
14,COc1ccc(F)c(CN2CCC(n3nccc3NC(=O)C3CCOC3)CC2)c1 (stereo not drawn),11.3
15,O=C(NNC(=O)c1ccc(F)cc1F)c1ccc(-n2cnnn2)cc1,8.27
16,CCOC(=O)N1CCN(C(=O)c2ccccc2Oc2ccccc2)CC1,7.71
17,CC(C)CCn1cnc2c([nH]c3cccc(Cl)c32)c1=O,8.78
18,CN(CCCNC(=O)C1CCC(CNS(=O)(=O)c2ccccc2)CC1)Cc1ccccc1 (stereo not drawn),6.77
19,COc1cccc(N2CCN(C(=O)CCNS(=O)(=O)c3ccc4c(c3)c(=O)n(C)c(=O)n4C)CC2)c1,15.8
20,CSc1nc(C)c2c(n1)N(c1ccc(O)cc1)CC2,6.49
21,CCOc1ccc(C(=O)CCC(=O)N2CCN(S(=O)(=O)c3cccc(F)c3)CC2)cc1,0.394
22,CCn1c(C(C)NC(=O)c2cccs2)nc2ccccc21 (stereo not drawn),11.5

row,Structure (SMILES),"hERG current change (%, negative = inhibition) at 1uM [%]"
1,C=CCNC(=O)c1ccc2nccnc2c1,6.99
2,CS(=O)(=O)c1cccc(C(=O)NCc2ccccc2)c1,8.73
3,COc1ccc(S(=O)(=O)N2CCCCCC2)cc1,9.7
4,COc1ccc(C(=O)C2CCCN(C(=O)Cn3cncn3)C2)cc1OC (stereo not drawn),41.6
5,Cc1cccc(-n2nc3c(c2NC(=O)c2ccc(Br)o2)CSC3)c1,10.3
6,CC(C)[C@H](NC(=O)N1CCn2c1nc1ccccc12)C(=O)NCc1ccco1,5.69
7,CN(C)c1nc(N)c(C(=O)N=C(N)N)nc1Cl.Cl,-2.45
8,Fc1ccc(N2CCN(C(c3cccs3)c3nnnn3CCc3ccccc3)CC2)cc1 (stereo not drawn),12.4
9,COc1ccc(CCN2C(=NC(=O)CCC(=O)O)SC3CS(=O)(=O)CC32)cc1 (stereo not drawn),2.94
10,CCc1nc2c(sc3nc4c(cc32)COC(C)(C)C4)c(=O)n1Cc1ccco1,-3.97
11,Cc1ccc(CSc2nc3ccccc3c(=O)n2Cc2ccco2)cc1,7.54
12,O=C(CN1C(=O)CSC1=O)NCc1ccccc1,5.3
13,CC(CN1CCOCC1)OC(=O)c1cccc(Br)c1.Cl (stereo not drawn),-1.61
14,CCn1c(SCc2nc3scc(-c4ccccc4)c3c(=O)[nH]2)nnc1-c1ccc(Cl)cc1,5.93
15,Cc1cc(=O)[nH]c2c1c(C)nn2C1CCOC(C)(C)C1 (stereo not drawn),8.96
16,Cc1cc(SCC(=O)N/N=C/c2ccc(O)c(O)c2)nc2ccccc12,19.1
17,Cc1ccccc1NC(=S)N(Cc1cccs1)C1CCCCC1,15
18,CCCN(CC(=O)Nc1ccccc1C)C(=O)c1ccc(S(=O)(=O)N2CCCCCC2)cc1,-1.46
19,Cc1ccc(CNC(=O)CCSCc2ccccc2C)cc1,7.55
20,CC1(C)CC(=O)C(C(C2=C(O)CC(C)(C)CC2=O)c2ccc(O)c([N+](=O)[O-])c2)=C(O)C1,10.4
21,CCOc1ccc(C2C(C#N)=C(N)SC(N)=C2C#N)cc1OC,-1.4
22,Cc1cccc2cc(CN(Cc3ccccc3)C(=O)N(C)C)c(=O)[nH]c12,2.1

row,Structure (SMILES),"hERG current change (%, negative = inhibition) at 1uM [%]"
1,Cc1nc(SCC(=O)N(C)C2(C#N)CCCCC2)c2ccccc2n1,6.3
2,COc1ccccc1OCCn1cc(C(=O)c2ccco2)c2ccccc21,12.1
3,C[C@@H]1O[C@@H](O[C@@H]2C=C3CCC4C(CC[C@]5(C)[C@@H](c6ccc(=O)oc6)CC[C@]45O)[C@@]3(C)CC2)[C@H](O)[C@H](O)[C@H]1O (stereo partly drawn),16.5
4,CCCC1(C(=O)OC)NC(c2cccc(F)c2)C2C(=O)N(CC)C(=O)C21 (stereo not drawn),12.6
5,CCc1ccc(OCc2nnc(SCC(=O)NCc3ccco3)o2)cc1,-16.9
6,CN(Cc1ccc(F)cc1)S(=O)(=O)c1nnc(NC(=O)c2ccccc2)s1,8.23
7,COc1ccc(NC(=O)CCNS(=O)(=O)c2ccccc2F)cc1S(N)(=O)=O,21.2
8,Cc1c2cnn(CC(=O)NCCCN3CCCCC3C)c(=O)c2c(C)n1Cc1ccccc1 (stereo not drawn),10.8
9,O=C(NC1CCCC1)C(c1ccncc1)N(Cc1ccccc1F)C(=O)c1csnn1 (stereo not drawn),10.1
10,COc1ccc(NC(=O)CCNC(=O)N2CC(=O)Nc3ccccc32)c(OC)c1,20.9
11,Cc1ccccc1NC(=O)c1sc2nc3c(c(-c4ccco4)c2c1N)CCCC3,1.69
12,O=S1(=O)N=C(N(CCO)/N=C/C=C/c2ccccc2)c2ccccc21,-4.99
13,CCCCN(C(=O)CCC(=O)Nc1cc(C)on1)C(C(=O)NC(C)(C)C)c1ccccc1Cl (stereo not drawn),16.6
14,COc1ccc(OC)c(-n2c(C)ccc2-c2ccc(S(C)(=O)=O)cc2)c1,0.856
15,COc1ccc(CNC(=O)c2ccc3ccccc3n2)cc1,11.8
16,CCCN1CCN(C(=O)c2ccc(CS(=O)c3ccc(F)cc3)o2)CC1 (stereo not drawn),1.81
17,N/C(=N\OC(=O)c1cc(Br)ccc1Cl)c1cccnc1,20.2
18,COc1cc(OC)cc(OC(=O)C2CCN(C3=NS(=O)(=O)c4ccccc43)CC2)c1,5.96
19,CN(CC(=O)c1c(N)n(C)c(=O)n(C)c1=O)c1ccccc1,4.92
20,COc1cc(NC(=O)c2c3c(nc4ccccc24)CCC3)cc(OC)c1,3.13
21,CC(C)OP(=O)(OC(C)C)C(O)c1ccc2c(c1)OCO2 (stereo not drawn),15.9
22,COC(=O)CC1COc2ccccc2N1C(=O)c1ccc(OC)cc1 (stereo not drawn),-1.97

row,Structure (SMILES),"hERG current change (%, negative = inhibition) at 1uM [%]"
1,CN(C(=S)Nc1cccnc1)c1ccc(O)cc1,7.75
2,CN1CCN(CCC(=O)N/N=C/C=C2\N(C)c3ccccc3C2(C)C)CC1,2.3
3,CCOC(=O)c1[nH]c2cc3c(cc2c1NC(=O)CN1CCCC1)OCO3,8.75
4,Cc1ccc(NC(=O)N2CCc3ccccc3C2)cc1C,18.5
5,O=C(Nc1ccncc1Cl)c1ccncc1,8.97
6,CC(=O)C1=C(C)NC(SCC(=O)c2ccc(Cl)cc2Cl)=C(C#N)C1c1ccco1 (stereo not drawn),1.93
7,CCN(CC(=O)Nc1ccc(NC(C)=O)cc1)CC(=O)Nc1cc(C)on1,-6.57
8,COC(=O)c1ccc(NC(=O)CN(c2ccc(OC)cc2)S(C)(=O)=O)cc1,6.45
9,COc1ccc(/C=N/NC(=O)CSCC(=O)Nc2ccccc2)cc1OC,12.6
10,CCN1CCN(Cc2c(O)ccc3c(=O)c(-c4ccccc4OC)coc23)CC1,5.36
11,O=C(C1CC(=O)N(C2CCCC2)C1)N1CCN(c2ccccc2F)CC1 (stereo not drawn),10.6
12,Cc1cc(C)nc(NC(=O)Cc2ccc(Br)cc2)n1,7.73
13,CC(C)COC(=O)C1C(=O)CC(C)(O)C(C(=O)OCC(C)C)C1c1cccnc1 (stereo not drawn),-8.07
14,ClC(=C\c1ccccc1)/C=N/N1CCN(c2ccccn2)CC1,3.86
15,CC(CC(=O)Nc1ccccc1)NCCCN1CCCC1=O.O=C(O)C(=O)O (stereo not drawn),11.3
16,C=CCNC(=O)c1ccccc1NS(=O)(=O)c1ccc(SC)cc1,10.5
17,COc1ccc(CC(=O)N2CCN(c3cccc(C)c3C)CC2)cc1,8.58
18,CC(NC(=O)Cc1cccs1)c1ccccc1 (stereo not drawn),20.3
19,CC(=O)c1c(C)[nH]c(C(=O)OCC(=O)N2CCN(S(=O)(=O)c3ccc(C)cc3C)CC2)c1C,1.54
20,COc1ccccc1CNC(=O)[C@@H]1CCCN1S(=O)(=O)c1ccc(Cl)cc1,9.34
21,COC(=O)c1cccc(N(C(=O)c2ccco2)C(C(=O)NC2CCCC2)c2ccc(N3CCOCC3)cc2)c1 (stereo not drawn),7.88
